Assay results from the supplement of paper PMC11417369.
± gives the standard deviation of the averaged measurements. The list shows a part of the results.

system: PfAP2-G AP2 domain (GST-tagged); test: gcPBM binding intensity (ln(normalized median fluorescence intensity)); higher = stronger DNA binding
In short: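 GST-tagged P. falciparum DNA-binding domains, expressed in E. coli (about 25 μg on average), were applied for 1 h to an Agilent 4 × 180k array of primer-extended double-stranded 36-bp intergenic genomic probes plus negative controls. The binding buffer was 1× PBS with 1% milk, 0.2 mg/ml BSA, 0.5% salmon testes DNA and 0.03% Triton X-100. Bound protein was detected with Alexa488 anti-GST antibody and scanned at 488 nm. Binding intensity is the highest Masliner-normalised natural-log median intensity across replicate spots of either probe orientation.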

Sequence	gcPBM binding intensity (ln)
ATAAATATTTATAACAGTACATATTTACTATCCTAA [XGTACX_site4497]	10.7 ± 0.49
TATAAAAAAATATATATATATATTATATGTGTAGAA [TGCATGCA_negctrl_site391]	9.875 ± 0.064
ATTTATTTGAAGAATTGTACTAAATTATATAGCGGT [XGTACX_site4998]	11 ± 0.67
TTTTTTTTTAATCATGCACACTGTTAAAAGAATAAA [CACACA_site4817]	10.2 ± 0.42
TATATCAAAATACATACACACATTTGTATTTACATT [CACACA_site5485]	9.945 ± 0.007
ATTTTAATTTGTTATACACACACAAAAAAAATTATA [CACACA_site9306]	10.2 ± 0.26
TCTTTTTAACAAAAAAAAAAAAAAAAAAAAAAATTA [CACACA_negctrl_site1637]	9.69 ± 0.21
AGAATTTTATTATATTGTACTTTTTATAAACCTTGT [XGTACX_site7495]	11.3 ± 0.91
TTTTGTTATTTTTCAGTGCAATATGATAATAATATA	10.1 ± 0.21
GAATCCTTAATATGAACACACAAATATATTACCCAT [CACACA_site186]	10.2 ± 0.2
TGCTTATTTAGAATTGTGCACAGCGAATATTCTGTT	10.3 ± 0.28
TACATTTATACTACTGCATTCAAAAAAAATAAAAAA [TGCATGCA_negctrl_site157]	10.1 ± 0.38
TTTTTTTTTTCAAATACATGCATTTATGTATAATAC [TGCATGCA_site722]	10 ± 0.11
TTTTTTTTTTTTTTGTGTACTAATATTATAAATTTT [XGTACX_site4405]	11.4 ± 1.1
TACATATTTTATAACTGTACTTTTTTATTATCCAAT [XGTACX_site5396]	11.6 ± 0.78
TTTATATAAATCAAATGTACATATTCCAAATATATA [XGTACX_site8515]	11.1 ± 0.67
TAGGAAAAAAATACAGTGCAATTTTTATATAAATAA [GTGCAC_site9979]	9.74 ± 0.26
ATTAATATGAATAAAACACACATATATAACTTGTAA [CACACA_site6989]	9.92
AATTATACTCACGTTACACACACACTATAAATATAT [CACACA_site7863]	10.4 ± 0.28
AAAAATTTGGCATACACACACACACGCACACGCACA [CACACA_site6422]	10.5 ± 0.32
TAAACTATATTTACATGTACATATAATATTAAATAA [XGTACX_site3528]	11.3 ± 0.81
CCTATAAAACCATATACACACATATAAATAAAAAAA [CACACA_site7809]	10.1 ± 0.35
AAATAAAAAAAAAAAAAAAATAACTTAAATGGGATA [TGCATGCA_negctrl_site595]	9.555 ± 0.064

Sequence	gcPBM binding intensity (ln)
AACTAAATGTTATTCGCACACGGAATTTATTTAATG [CACACA_site3664]	10.2 ± 0.18
TTTTTTTTTTCTTTTTTTCTCATGAAATTCTAAATG [CACACA_negctrl_site918]	10.2 ± 0.42
ATATATATATATATATATATATATATGATTATTACT [GTGCAC_negctrl_site109]	9.78 ± 0.47
TATTACATTATTCAAAAAAATTTATATGGTTATAGG [CACACA_negctrl_site1657]	9.72
TGATAATAAGCATACACACACACACCCAAAAAAAAA [CACACA_site721]	10.4 ± 0.39
AATTATATTCAAAATGGTACACACAATATTTAATTG [XGTACX_site5521]	11.2 ± 0.69
TAGTAAAAGATATACACACACCAAAAAATATAATTA [CACACA_site7142]	9.98 ± 0.042
TATATATGGGTACTAATTCCTTTAATTTCTTTAATT [CACACA_negctrl_site949]	11 ± 0.53
TTTTGTATTTCTCACACACACATAAGTAAACAATAA [CACACA_site5105]	10.3 ± 0.3
AAAAAAAAATTAGGGGTGCCATTTGCTGCTGTGCTT [GTGCAC_site9913]	9.97 ± 0.042
TTCCCTTATTTTGTATGTACACAATTTATCATGTTG [XGTACX_site2896]	11.5 ± 0.85
ATATATATATATGCATGTACATATATTTGTTATATC [XGTACX_site3197]	11 ± 0.57
TCACACCTTTTTGGTTGTACTTAAATTTCTTTTTTT [XGTACX_site6438]	11.2 ± 0.75
AATAGATATATAAATACACACAAACATACCTATATA [CACACA_site7823]	10.05 ± 0.014
AAACAAAGGGAACATGTGCACTTACAAAAAAAAAGA	10.5 ± 0.49
TGTAATATGAAATGTGTACACACGCACCCACAAAAA [CACACA_site8948]	11.6 ± 1
TTCTCAAAGTTTACGTGTACATAAATTATATAAATG [XGTACX_site2622]	11.5 ± 0.91
ATTAGGCATATTTTCTGTACACAATAATAAAAAAAA [XGTACX_site3957]	11.6 ± 0.91
ATTTATTTTAATTTTTTTTTTTCTCTTTTGGATCTA [CACACA_negctrl_site1408]	9.46 ± 0.099
ATTAAATACATTAACACACACACAAATAAATACATA [CACACA_site5583]	10.2 ± 0.25
TTTTATTATTTGTCTTGTACTCATTGTAAGAGTATG [XGTACX_site1538]	11.4 ± 0.91
TTTCAAAAATTATTTTGTACATATAATTAATATACG [XGTACX_site512]	10.9 ± 0.58
GACAGATTATAGCATAGTACTCATACATACATACAT [XGTACX_site1252]	11.1 ± 0.71

Sequence	gcPBM binding intensity (ln)
TACATACATACATACACACACACATCTATATTTATA [CACACA_site6171]	10.7 ± 0.43
GTGTAATATTATATATATATATATAATATATATACA [CACACA_negctrl_site263]	9.74 ± 0.099
CACATATACAAAAAGAAATGTTTAGTTGAAAATTAA [CACACA_negctrl_site1407]	9.79 ± 0.23
AATTTCTTCCATTGTAGTACTCAATTTTTTTTTGTT [XGTACX_site5847]	11.4 ± 0.83
ATTTAAAAGTTGGTAGTGCATTAAAAATAACAAAAA [GTGCAC_site9835]	10.6 ± 0.41
AAAAAAAAAAAAATGGTGCAACTTTGTTAAAGGAAA [GTGCAC_site9950]	10.2 ± 0.15
GTAATAAATTAAATATGTACATATTAAAATTAAGGA [XGTACX_site2290]	11.3 ± 0.67
ATTGATACATCCAATACACACTACAGATAATGATGT [CACACA_site5098]	10.2 ± 0.15
GTATGATTAAATAAAGGTACACTTATATTTATTTAT [XGTACX_site6966]	11.3 ± 0.88
TATCACATTTATGAGAGTACATAATTAATTCATGAT [XGTACX_site7850]	11.2 ± 0.83
TGCTACATAATATGTACACACATATACATATTTATA [CACACA_site6545]	11.3 ± 0.92
GAATTAATTTTAAAACGTACATGGGTGTATTTACAC [XGTACX_site5939]	11.3 ± 0.79
CATAATACAAATGTGATACCTGAAAATGACTTATTA [CACACA_negctrl_site994]	10.055 ± 0.007
TTCTTTTTTGTAATAACACACACACTAACAGAAAAA [CACACA_site8646]	10.5 ± 0.42
ATATATATATATAATTGTACATGTGTGTATAATTTG [XGTACX_site2417]	10.9 ± 0.55
AATTATACATATATTTAACACACATTTTATAAAGTG [CACACA_site8362]	10.29 ± 0.021
GTCAATATTTAGATATGTACTAAGGAGTGCTATATA [XGTACX_site222]	11 ± 0.44
ATATTATGAAGGGATATTTTCAAAAATATTAGGAGA [CACACA_negctrl_site942]	9.905 ± 0.021
TAAATGAAAATAAATTAACACACAATTTTAATATTG [CACACA_site8360]	9.7 ± 0.16
TTTTATTTTATATAACAACAAAATGGAAATATATAT [GTGCAC_negctrl_site71]	10.2 ± 0.37
CAATTTTTATGTGTGTGTACTCATTTGTTTTATAAA [XGTACX_site406]	11.5 ± 0.94
AAAAAAAAAAAATGTGCACACGCGTACACCCAAAAA [CACACA_site8614]	11.7 ± 0.77
TTTCTTTTTGTTCGTGTACACACATGAAATTTATAA [CACACA_site8466]	11.6 ± 0.86

Sequence	gcPBM binding intensity (ln)
TTGGAATAATATAAATAAATAAATATATATATATAT [CACACA_negctrl_site900]	9.72 ± 0.33
ATACAACAGATATATACACACATATAACAATAATAA [CACACA_site7560]	10 ± 0.13
ATGAGAAAACATAAAAGTACAAAAAGAAAAAAAAAA [XGTACX_site6020]	11.1 ± 0.72
TTATTTGATTACTTGCGTACTTATTTCATATTTTTT [XGTACX_site6648]	11.3 ± 0.79
GGGATATTTTAAAGGGTGCATATTATTAAAATAATG	10.6 ± 0.62
ACATATAATATAAAGTGTACAAGAAAATAAAAATAA [XGTACX_site1273]	11.3 ± 0.77
TTTCCATATTTTTAAAGTACATATTTCCGTTTCCAC [XGTACX_site7832]	11.2 ± 0.71
TCATAGTATGGACACACACACACACCCATATATATA [CACACA_site5033]	11.1 ± 0.78
TTGGGTCAAACATAAACACACACAAAAAGAAAAAAT [CACACA_site8328]	10.3 ± 0.32
TATTATATTAATGATGGTACAGTGTATATATATAAT [XGTACX_site1286]	10.8 ± 0.46
ATTTAATTATGTAAGTGTACTTTGGAATATAATATT [XGTACX_site3186]	11.3 ± 0.84
GTAGCACATATATATTGTACATAATATATACATTAT [XGTACX_site6354]	11 ± 0.6
TAATAATAAACAACCACACACAAAAAAACAAAAAAA [CACACA_site3269]	10.1 ± 0.25
TTTTCTTCCTATTATTGTACATATAGTATTCTTTCA [XGTACX_site4428]	11.2 ± 0.7
AATATAAGTAATTATACACACTTAATATTTATATAC [CACACA_site7334]	10 ± 0.11
TTTATTTTATAATTCACACATATATACCTATTTTAT [CACACA_site5709]	9.905 ± 0.021
GTGTGGTGCTCGAGGAGTACAAACAATATGTAATTT [XGTACX_site4160]	11.5 ± 0.96
TAAACAGACATATAAACACACATATAAACAGACATA [CACACA_site7214]	9.88 ± 0.14
TTTTTATAGAATTTAACACACATTTCATATAAAAAA [CACACA_site7453]	9.93 ± 0.11
GTTAGGATAGATTAGACATGCACATAAATGCACTTC [TGCATGCA_site561]	9.85 ± 0.028
